Reference: the supplement of paper PMC10600219
Counter-ions that a name gives are not always drawn. Over roughly 2,800 compounds, “cell viability relative to vehicle” has its median near 0.98; the lowest 2% begin near 0.45. This is one part of the list.

System: NCI-H2228 alectinib-DTP
Assay: cell viability relative to vehicle (fraction of vehicle); NCI-H2228 is an ALK-positive lung cancer line and DTP means drug-tolerant persister; higher = less growth inhibition
Details: 100 nM; treatment time 6 days
Summary of the method: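 Each value is viability relative to vehicle-treated cells, measured as ATP with the CellTiter-Glo 3D Cell Viability Assay. Parental NCI-H2228 cells and drug-tolerant persisters (1000 nM targeted drug, 13 days) in 384-well plates received the 3114-agent TargetMol anti-cancer compound library at 100 nM, or DMSO, and were read 6 days later.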

Compound	cell viability
CCOC(=O)c1ccc(N2NC(=O)C(=Cc3ccc([N+](=O)[O-])o3)C2=O)cc1	1.04
CS(=O)(=O)Nc1cc(-c2ccc3ncnc(Nc4ccc(F)c(Cl)c4)c3c2)cnc1Cl	0.997
CCNC(=O)c1noc(-c2cc(Cl)c(O)cc2O)c1-c1ccc(OC)cc1	0.844
C[C@@H]1CN(c2c(F)c(N)c3c(=O)c(C(=O)O)cn(C4CC4)c3c2F)C[C@H](C)N1 [Sparfloxacin]	1
CNCCN(C)Cc1cn[nH]c1-c1ccc(OC2CC(OCCC3CCOCC3)C2)cc1 (configuration not stated)	1.05
COc1cc2c(cc1O)[C@@H](Cc1ccc(O)c(Oc3ccc(C[C@@H]4c5cc(OC)c(OC)cc5CCN4C)cc3)c1)N(C)CC2 [Daurisoline]	1.07
CC(C)(C)NS(=O)(=O)c1cncc(-c2cc(F)c3nc(N)nn3c2)c1	1.03
COc1cc2c(=O)c(-c3ccc(O)cc3)coc2cc1O[C@@H]1O[C@H](CO)[C@@H](O)[C@H](O)[C@H]1O [Glycitin]	0.958
O=C(O)P(=O)(O)O [Foscarnet sodium]	1.06
CCCCCCCCCCCCCCCC[N+](C)(C)CCN(Cc1ccc(OC)cc1)c1ncccn1 [Thonzonium Bromide]	0.949
O=C1C=C2C=C[C@@H](O)[C@H](O)[C@H]2O1 [griffonilide]	1.01
COc1cc(OC)cc(N(CCNC(C)C)c2ccc3ncc(-c4cnn(C)c4)nc3c2)c1 [Erdafitinib]	0.759
CC(=O)c1cc(O)ccc1O [2-5-dihydroxyacetophenone]	1.02
CCN(CC)CCCC(C)Nc1c2ccc(Cl)cc2nc2ccc(OC)cc12 (configuration not stated) [Quinacrine dihydrochloride]	0.927
CN(CCOc1ccc(NS(C)(=O)=O)cc1)CCc1ccc(NS(C)(=O)=O)cc1 [Dofetilide]	1.02
CNCC(O)c1ccc(O)c(O)c1 (racemic) [DL-Adrenaline Hydrochloride]	1.05
CC(=O)N1CCN(c2ccc(OCC3COC(Cn4ccnc4)(c4ccc(Cl)cc4Cl)O3)cc2)CC1 (configuration not stated) [Ketoconazole]	1.06
Cc1[nH]c(/C=C2\C(=O)Nc3ccccc32)c(C)c1CCC(=O)O [Orantinib]	0.886
C1=N/C2=N/c3ccc(OCCN4CCCC4)c(c3)COC/C=C/COCc3cccc(c3)C(=C1)N2 [Pacritinib]	1.04
COc1ccc2cccc(CCNC(C)=O)c2c1 [Agomelatine]	0.797
CNc1ncc2cc(-c3cc(NC(=O)NCCC(C)(C)C)c(F)cc3C)c(C)nc2n1	0.945
CC(C)NCC(O)c1ccc(NS(C)(=O)=O)cc1 (configuration not stated) [Sotalol hydrochloride]	1.02
C#C[C@]1(O)CC[C@H]2[C@@H]3CCc4cc(OC)ccc4[C@H]3CC[C@@]21C [Mestranol]	0.783
CN(C)C(=O)c1ccc(S(=O)(=O)c2ccc(NC(=O)[C@@](C)(O)C(F)(F)F)c(Cl)c2)cc1	0.997

Compound	cell viability
COc1nccnc1NS(=O)(=O)c1ccc(NC(=O)/C=C/c2ccc([N+](=O)[O-])s2)cc1 [Necrosulfonamide]	0.903
CCOc1ccccc1C(N)=O [2-Ethoxybenzamide]	1.19
N[C@@H]1CCCN(c2c(/C=C3\SC(=O)NC3=O)cccc2-c2ccccc2)C1	0.933
CO[C@H]1C[C@@H]2CC[C@@H](C)[C@@](O)(O2)C(=O)C(=O)N2CCCC[C@H]2C(=O)O[C@H]([C@H](C)C[C@@H]2CC[C@@H](O)[C@H](OC)C2)CC(=O)[C@H](C)/C=C(\C)[C@@H](O)[C@@H](OC)C(=O)[C@H](C)C[C@H](C)/C=C/C=C/C=C/1C [Rapamycin]	0.861
CNC(=O)c1c(C)oc2cc(Oc3ncnc4cc(OC)c(OC)cc34)ccc12 [Fruquintinib]	0.933
N#Cc1ccc2[nH]c(O)c(-c3ccc(CN4CCOCC4)cn3)c2c1	0.939
Oc1ccc(Nc2nc(-c3ccc(Cl)cc3)cs2)cc1	0.973
COc1cc2ncnc(Nc3ccc(Cl)cc3F)c2cc1OC	0.865
O=[N+]([O-])c1cc(C(F)(F)F)cc([N+](=O)[O-])c1NNC(=S)Nc1ccc(F)cc1	1.07
O=C1O[C@H]2[C@@H]3OC(=O)c4cc(O)c(O)c(O)c4-c4c(cc(O)c(O)c4O)C(=O)OC[C@H]2O[C@@H](OC(=O)c2cc(O)c(O)c(O)c2)[C@@H]3OC(=O)c2cc(O)c(O)c3c2[C@@H]2C1=CC(=O)[C@](O)(O3)C2(O)O [Geraniin]	1.09
COc1ccc(/C=C\c2cc(OC)c(OC)c(OC)c2)cc1OP(=O)(O)O [Fosbretabulin Disodium]	0.561
CCS(=O)(=O)c1ccc2oc(-c3ccc4ccccc4c3)nc2c1 [Ezutromid]	0.954
COC(=O)c1ccc2c(c1)NC(=O)/C2=C(\Nc1ccc(N(C)C(=O)CN2CCN(C)CC2)cc1)c1ccccc1 [Nintedanib]	0.783
C[C@@H]1O[C@@H](O[C@@H]2[C@@H](O)[C@H](OCCc3ccc(O)c(O)c3)O[C@H](CO)[C@H]2OC(=O)/C=C/c2ccc(O)c(O)c2)[C@H](O)[C@H](O)[C@H]1O [Verbascoside]	1.12
O=C(O[C@@H]1Cc2c(O)cc(O)cc2O[C@@H]1c1cc(O)c(O)c(O)c1)c1cc(O)c(O)c(O)c1 [(-)-Epigallocatechin Gallate]	0.875
N#Cc1ccc2ncnc(NC3CCC(N4CCOCC4)CC3)c2c1 (configuration not stated)	1.12
CC(C)C[C@H](NC(=O)CNC(=O)c1cc(Cl)ccc1Cl)B(O)O [Ixazomib]	0.28
CNC[C@H](O)c1cccc(O)c1 [Phenylephrine hydrochloride]	1.07
Cc1nc(Nc2n[nH]c3c2CN(C(=O)N[C@H](CN(C)C)c2ccccc2)C3(C)C)c2sccc2n1	0.935
CCC(=O)NS(=O)(=O)c1ccc(-c2c(-c3ccccc3)noc2C)cc1 [Parecoxib]	0.828
CCOc1ccn(-c2ccc(F)cc2)c(=O)c1C(=O)Nc1ccc(Oc2ccnc(N)c2Cl)c(F)c1	0.906
CSc1cccc(Nc2ncc3cc(-c4c(Cl)cccc4Cl)c(=O)n(C)c3n2)c1	0.665
O=C(NOCCO)c1cc(CN2OCCCC2=O)c(F)c(F)c1Nc1ccc(I)cc1F	0.84
